Read-outs that look alike come from different tables or passages of the source. Peptide text beside a SMILES is read from it.
Legend:
S. aureus ATCC 33591 = assay type: cell-based, Staphylococcus aureus; conditions: ATCC 33591, 24 h
Procedure: (§1) Fresh cultures were used in antimicrobial assay. […] Moreover MBC was evaluated. […] All experiments were conducted in triplicate.

E. coli ATCC 25922 = assay type: cell-based, Escherichia coli
Procedure: as §1

P. aeruginosa ATCC 9027 = assay type: cell-based, Pseudomonas aeruginosa; conditions: ATCC 9027, 24 h
Procedure: as §1

E. coli ATCC 43827 = assay type: cell-based, Escherichia coli
[1] = test system: A. baumannii ATCC BAA 1605; assay type: cell-based, Acinetobacter baumannii; conditions: ATCC BAA 1605, 24 h
Procedure: as §1

[2] = Supplementary Data 5F, analogue generation without additional preselection
[3] = first experimental round, broth microdilution (CLSI), Mueller-Hinton Broth, 0.5 × 10^5 CFU/mL, 1-[…], 18 h at 37 °C, triplicate

Row | SMILES | S. aureus ATCC 33591 MBC (S. aureus ATCC 33591) [µg/mL] | E. coli ATCC 25922 MBC (E. coli ATCC 25922; ATCC 25922, 24 h) [µg/mL] | P. aeruginosa ATCC 9027 MBC (P. aeruginosa ATCC 9027) [µg/mL] | E. coli ATCC 43827 MBC (E. coli ATCC 43827; ATCC 43827, 24 h) [µg/mL] | A. baumannii ATCC BAA 1605 MBC [1] [µg/mL] | E. coli ATCC 25922 MIC (E. coli ATCC 25922; ATCC 25922, 24 h) [µg/mL] | E. coli ATCC 43827 MIC (E. coli ATCC 43827; ATCC 43827, 24 h) [µg/mL] | E. coli ATCC 25922 MIC (E. coli ATCC 25922; [2]) [µg/mL] | MIC E. coli ATCC 25922 (E. coli ATCC 25922; [3]) [µg/mL] | E. coli ATCC 43827 MIC (E. coli ATCC 43827; [2]) [µg/mL] | MIC E. coli ATCC 43927 (E. coli ATCC 43827; [3]) [µg/mL] | S. aureus ATCC 33591 MIC (S. aureus ATCC 33591) [µg/mL]
1 | CC[C@H](C)[C@H](NC(=O)[C@H](CCCCN)NC(=O)[C@H](CC(N)=O)NC(=O)[C@@H](NC(=O)[C@@H](NC(=O)[C@H](CCCCN)NC(=O)[C@@H](NC(=O)[C@H](C)NC(=O)[C@@H](NC(=O)[C@H](Cc1c[nH]cn1)NC(=O)CNC(=O)[C@H](C)NC(=O)[C@H](CC(C)C)NC(=O)[C@H](CC(=O)O)NC(=O)[C@H](CCCCN)NC(=O)[C@H](C)NC(=O)[C@H](C)NC(=O)CNC(=O)[C@H](CCCCN)NC(=O)[C@H](CC(C)C)NC(=O)[C@@H](NC(=O)[C@H](CC(=O)O)NC(=O)[C@H](CC(C)C)NC(=O)[C@@H](NC(=O)CN)C(C)C)[C@@H](C)CC)C(C)C)[C@@H](C)O)C(C)C)[C@@H](C)CC)C(N)=O [Syphaxin, reference compound] (H-GVLDILKGAAKDLAGHVATKVINKI-NH2) | >512 | 512 | >512 | >512 | 256 | – | – | – | – | – | – | –
2 | CC[C@H](C)[C@H](N)C(=O)NCC(=O)N[C@@H](CCCCN)C(=O)N[C@@H](CCC(=O)O)C(=O)N[C@@H](Cc1ccccc1)C(=O)N[C@@H](CCCCN)C(=O)N[C@@H](CCCNC(=N)N)C(=O)N[C@H](C(=O)N[C@H](C(=O)N[C@@H](CCC(=O)O)C(=O)N[C@@H](CCCNC(=N)N)C(=O)N[C@H](C(=O)N[C@@H](CCCCN)C(=O)N[C@@H](CCCNC(=N)N)C(=O)N[C@@H](Cc1ccccc1)C(=O)N[C@@H](CC(C)C)C(=O)N[C@@H](CCCNC(=N)N)C(=O)N[C@@H](CCC(=O)O)C(=O)N[C@@H](CC(C)C)C(=O)N[C@H](C(=O)N[C@@H](CCCNC(=N)N)C(=O)N1CCC[C@H]1C(=O)N[C@@H](CC(C)C)C(=O)N[C@@H](CCCNC(=N)N)C(N)=O)C(C)C)[C@@H](C)CC)C(C)C)[C@@H](C)CC [OP-145, reference compound] (H-IGKEFKRIVERIKRFLRELVRPLR-NH2) | 128 | 128 | >512 | 256 | 32 | 128 | 128 | – | – | – | – | –
3 | CC[C@H](C)[C@H](NC(=O)[C@@H]1CCCN1C(=O)[C@H](CC(C)C)NC(=O)[C@@H](N)Cc1ccccc1)C(=O)N[C@@H](CCCCN)C(=O)N[C@@H](CC(N)=O)C(=O)N[C@@H](CCCNC(=N)N)C(=O)N[C@@H](Cc1ccc(O)cc1)C(=O)N[C@@H](C)C(=O)N[C@@H](CO)C(=O)N[C@@H](C)C(=O)N[C@@H](C)C(=O)N[C@@H](CCC(=O)O)C(N)=O [Temp-P1-5] | – | – | – | – | – | – | – | >512 | >512 | >512 | >512 | –
4 | CC[C@H](C)[C@H](NC(=O)CN)C(=O)NCC(=O)N[C@@H](CCCCN)C(=O)N[C@@H](Cc1ccccc1)C(=O)N[C@@H](CC(C)C)C(=O)N[C@@H](CCCCN)C(=O)N[C@@H](CCCCN)C(=O)N[C@@H](C)C(=O)N[C@@H](CCCCN)C(=O)N[C@@H](CCCCN)C(=O)N[C@@H](Cc1ccccc1)C(=O)NCC(=O)N[C@@H](CCCCN)C(=O)N[C@@H](C)C(=O)N[C@@H](Cc1ccccc1)C(=O)N[C@H](C(=O)N[C@@H](CCCCN)C(=O)N[C@H](C(=O)N[C@@H](CC(C)C)C(=O)N[C@@H](CCCCN)C(=O)N[C@@H](CCCCN)C(N)=O)[C@@H](C)CC)C(C)C [Pexiganan, reference compound] (H-GIGKFLKKAKKFGKAFVKILKK-NH2) | 32 | 32 | 32 | 8 | 2 | – | 4 | – | – | – | – | 32
